Results taken from the supplement of paper PMC4967469.
Lines with a small IC50 respond at low doses; a limit (>, <) means that the fit lies beyond the doses tested. The AUC spans the tested range (256-fold, ending at the top dose) of the same fit; values near 1 show little effect. For part of these data: A top dose marked as inferred was derived from the fitted curves, not read from the paper. For part of these data: Where an entry number is given, a second screen of the drug exists; the two often differ.

Key:
Test in all cases: Viability of human cancer cell lines after 72 h of drug (GDSC screen)
LFM-A13 = compound: C/C(O)=C(\C#N)C(=O)Nc1cc(Br)ccc1Br [LFM-A13]; conditions: top dose 16 µM; top dose inferred
Procedure: (§1)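 Human cancer cell lines in 384-well plates, medium with 10% serum, drug for 72 h over a 256-fold dose range (nine 2-fold or five 4-fold steps up to the top dose). Adherent lines were fixed and stained with the nucleic acid dye Syto60, suspension lines read with resazurin; signal relative to control wells, capped at 0 and 100%. One two-parameter sigmoid per drug and line, fitted in a mixed model over all curves with the slope shared within a line.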

TW-37 = compound: CC(C)c1ccccc1Cc1cc(C(=O)Nc2ccc(S(=O)(=O)c3ccccc3C(C)(C)C)cc2)c(O)c(O)c1O [TW-37]; conditions: top dose 5 µM
Procedure: as §1

Bicalutamide = compound: CC(O)(CS(=O)(=O)c1ccc(F)cc1)C(=O)Nc1ccc(C#N)c(C(F)(F)F)c1 [Bicalutamide]; conditions: top dose inferred
Procedure: as §1

AUY922 = compound: CCNC(=O)c1noc(-c2cc(C(C)C)c(O)cc2O)c1-c1ccc(CN2CCOCC2)cc1 [AUY922]; conditions: top dose 0.256 µM; top dose inferred
Procedure: as §1

KIN001-270 = compound: Cc1ccc(Nc2cc(-c3cccc(N4C(=O)c5ccccc5C4=O)c3)ncn2)cc1NS(C)(=O)=O [KIN001-270]; conditions: top dose 20 µM; top dose inferred
Procedure: as §1

Nilotinib = compound: Cc1cn(-c2cc(NC(=O)c3ccc(C)c(Nc4nccc(-c5cccnc5)n4)c3)cc(C(F)(F)F)c2)cn1 [Nilotinib]; conditions: top dose 2 µM
Procedure: as §1

T0901317 = compound: O=S(=O)(c1ccccc1)N(CC(F)(F)F)c1ccc(C(O)(C(F)(F)F)C(F)(F)F)cc1 [T0901317]; conditions: top dose 10.24 µM; top dose inferred
Procedure: as §1

MP470 = compound: S=C(NCc1ccc2c(c1)OCO2)N1CCN(c2ncnc3c2oc2ccccc23)CC1 [MP470]; conditions: top dose 20 µM; top dose inferred
Procedure: as §1

[1] = top dose 1.024 µM, screen: GDSC drug entry 150
[2] = top dose 10 µM, screen: GDSC drug entry 1502

Cell Line	AUC (LFM-A13)	IC50 (LFM-A13) [µM]	AUC (TW-37)	IC50 (TW-37) [µM]	AUC (Bicalutamide; [1])	IC50 (Bicalutamide; [1]) [µM]	AUC (Bicalutamide; [2])	IC50 (Bicalutamide; [2]) [µM]	AUC (AUY922)	IC50 (AUY922) [µM]	AUC (KIN001-270)	IC50 (KIN001-270) [µM]	AUC (Nilotinib)	IC50 (Nilotinib) [µM]	AUC (T0901317)	IC50 (T0901317) [µM]	AUC (MP470)	IC50 (MP470) [µM]
CAL-120 (breast, adherent)	0.954	> 16	0.583	0.564	0.98	> 1.02	0.948	> 10	0.599	0.0323	0.954	> 20	0.974	> 2	0.98	> 10.2	0.945	> 20
SW13 (adrenal gland, adherent)	0.851	12.5	0.364	0.131	0.986	> 1.02	0.964	> 10	0.606	0.0314	0.987	> 20	0.962	> 2	0.984	> 10.2	0.922	> 20
HT-1080 (fibrosarcoma, adherent)	0.983	> 16	0.346	0.123	0.989	> 1.02	0.986	> 10	0.524	0.0185	0.985	> 20	0.922	> 2	0.987	> 10.2	0.974	> 20
BxPC-3 (pancreas, adherent)	0.914	> 16	0.788		0.983	> 1.02	0.974	> 10	0.658	0.0466	0.983	> 20	0.984	> 2	0.961	> 10.2	0.966	> 20
MDA-MB-453 (breast, adherent)	0.966	> 16							0.845	0.215	0.962	> 20	0.986	> 2	0.95	> 10.2	0.526	1.49
KP-1N (pancreas, adherent)	0.979	> 16	0.394	0.158	0.986	> 1.02	0.971	> 10	0.483	0.0144			0.969	> 2				
KP-3 (pancreas, adherent)	0.972	> 16	0.495	0.301	0.981	> 1.02	0.967	> 10	0.653	0.0464	0.976	> 20	0.984	> 2	0.984	> 10.2	0.965	> 20
SW1990 (pancreas, adherent)	0.947	> 16	0.733	1.64	0.98	> 1.02	0.962	> 10	0.54	0.021	0.973	> 20	0.961	> 2	0.973	> 10.2	0.921	> 20
HuP-T4 (pancreas, adherent)	0.94	> 16	0.587	0.551	0.983	> 1.02			0.593	0.0292	0.971	> 20	0.984	> 2	0.978	> 10.2	0.969	> 20
HCC38 (breast, adherent)	0.986	> 16	0.59	0.562	0.978	> 1.02	0.985	> 10	0.569	0.0252	0.973	> 20	0.986	> 2	0.984	> 10.2	0.969	> 20
CCF-STTG1 (glioma, adherent)	0.98	> 16	0.721	1.33	0.939	> 1.02	0.987	> 10	0.385	0.00768	0.961	> 20	0.985	> 2			0.988	> 20
PA-TU-8988T (pancreas, adherent)	0.964	> 16	0.496	0.304	0.986	> 1.02	0.952	> 10	0.54	0.0206	0.979	> 20	0.959	> 2	0.95	> 10.2	0.937	> 20
NCC021 (kidney, adherent)			0.731	1.61			0.983	> 10			0.91	> 20	0.985	> 2	0.978	> 10.2	0.909	> 20
HCC202 (breast, adherent)	0.857	> 16	0.96	> 5	0.967	> 1.02	0.965	> 10	0.735	0.0999	0.928	> 20	0.98	> 2				
D-423MG (glioma, adherent)			0.585	0.562			0.972	> 10			0.884	> 20	0.907	> 2	0.913	> 10.2	0.751	7.92
Hey (ovary, adherent)			0.482	0.28			0.971	> 10			0.978	> 20	0.908	> 2	0.978	> 10.2	0.368	0.554
HuH-7 (liver, adherent)	0.979	> 16	0.35	0.12	0.987	> 1.02	0.986	> 10	0.684	0.0524	0.981	> 20	0.978	> 2			0.439	0.852
DOV13 (ovary, adherent)			0.535	0.395			0.943	> 10			0.967	> 20	0.984	> 2	0.969	> 10.2	0.967	> 20
SNU-407 (large intestine, adherent)			0.572	0.508			0.969	> 10			0.961	> 20	0.959	> 2	0.978	> 10.2	0.659	3.74

Cell Line	AUC (LFM-A13)	IC50 (LFM-A13) [µM]	AUC (TW-37)	IC50 (TW-37) [µM]	AUC (Bicalutamide; [1])	IC50 (Bicalutamide; [1]) [µM]	AUC (Bicalutamide; [2])	IC50 (Bicalutamide; [2]) [µM]	AUC (AUY922)	IC50 (AUY922) [µM]	AUC (KIN001-270)	IC50 (KIN001-270) [µM]	AUC (Nilotinib)	IC50 (Nilotinib) [µM]	AUC (T0901317)	IC50 (T0901317) [µM]	AUC (MP470)	IC50 (MP470) [µM]
EMC-BAC-1 (lung adenocarcinoma, adherent)			0.813	3.17			0.982	> 10			0.961	> 20	0.958	> 2	0.958	> 10.2	0.929	> 20
NCI-H630 (large intestine, adherent)			0.579	0.522			0.987	> 10			0.984	> 20	0.948	> 2	0.974	> 10.2	0.959	> 20
SK-GT-4 (oesophagus, adherent)			0.583	0.559			0.979	> 10			0.982	> 20	0.95	> 2	0.971	> 10.2	0.974	> 20
KMS-11 (myeloma, suspension)			0.647	0.744			0.986	> 10			0.938	> 20	0.99	> 2	0.97	> 10.2	0.977	> 20
RCC-JW (kidney, adherent)			0.448	0.224			0.984	> 10			0.964	> 20	0.986	> 2	0.986	> 10.2	0.498	1.23
COR-L321 (lung, suspension)			0.863	4.31			0.988	> 10			0.973	> 20	0.983	> 2	0.979	> 10.2	0.945	> 20
22RV1 (prostate, adherent)	0.96	> 16	0.687	1.2					0.56	0.0242	0.981	> 20	0.979	> 2	0.977	> 10.2	0.929	> 20
QGP-1 (pancreas, adherent)			0.953	> 5			0.975	> 10			0.972	> 20	0.978	> 2	0.978	> 10.2	0.831	> 20
CADO-ES1 (Ewing sarcoma, suspension)			0.821	2.95			0.986	> 10			0.962	> 20	0.981	> 2	0.972	> 10.2	0.883	> 20
TE-4 (oesophagus, adherent)			0.486	0.286			0.968	> 10			0.976	> 20	0.985	> 2	0.982	> 10.2	0.923	> 20
RCC-AB (kidney, adherent)			0.57	0.514			0.91	> 10			0.923	> 20	0.979	> 2	0.976	> 10.2	0.173	0.0892
KYAE-1 (oesophagus, suspension)			0.859	4.88			0.968	> 10			0.967	> 20	0.968	> 2	0.958	> 10.2	0.89	> 20
OACp4C (oesophagus, adherent)			0.599	0.619			0.97	> 10			0.975	> 20	0.958	> 2	0.982	> 10.2	0.927	> 20
SNU-61 (large intestine, adherent)			0.922	> 5			0.979	> 10			0.984	> 20	0.985	> 2	0.982	> 10.2	0.936	> 20
SNU-C5 (large intestine, adherent)			0.725	1.46			0.984	> 10			0.983	> 20	0.975	> 2	0.973	> 10.2	0.932	> 20
SCC90 (head and neck, adherent)	0.967	> 16	0.575	0.547	0.971	> 1.02	0.978	> 10	0.692	0.0702			0.981	> 2				
FLO-1 (oesophagus, adherent)			0.543	0.431			0.945	> 10			0.948	> 20	0.974	> 2	0.969	> 10.2	0.926	> 20
PEO1 (ovary, adherent)			0.45	0.226			0.982	> 10			0.973	> 20	0.987	> 2	0.96	> 10.2	0.931	> 20
OVCA420 (ovary, adherent)			0.727	1.74			0.934	> 10			0.975	> 20	0.975	> 2	0.98	> 10.2	0.941	> 20
